Here are results for 9 compounds from the antibiotic and cytotoxicity screens of Wong et al. (2023).

The other results are listed elsewhere or left out.

For this assay, the system named is HSkMC (human skeletal muscle cells). Briefly: cytotoxicity call (relative viability < 0.9). The following applies: 10 µM.
`O=C(C[C@H]1CC=CCC[C@@H](Cc2ccc(F)cc2)C(=O)OC[C@H](Cc2ccccc2)NC1=O)NCCO`: the cytotoxicity call was “inactive”. Next, `C[C@@H]1CCCCO[C@H](CN(C)Cc2ccc(C(F)(F)F)cc2)[C@@H](C)CN([C@H](C)CO)C(=O)c2cc(NC(=O)c3ccccc3)ccc2O1`: “inactive”; `COc1ccccc1CN(C)C[C@@H]1OCc2ccccc2-c2c(n(C)c3ccccc23)C(=O)N([C@@H](C)CO)C[C@@H]1C`: “inactive”.

For `CCCNC(=O)N(C)C[C@H]1Oc2cc(C#Cc3ccccn3)ccc2S(=O)(=O)N([C@H](C)CO)C[C@@H]1C`, the cytotoxicity call was “inactive”. On to `C[C@@H]1CN([C@H](C)CO)C(=O)CCCn2nncc2CO[C@H]1CN(C)C(=O)Nc1ccccc1C(F)(F)F`, for which the cytotoxicity call is “inactive”. For the compound `O=C(C[C@H]1C[C@H]2c3cc(NS(=O)(=O)c4ccccc4)ccc3O[C@H]2[C@H](CO)O1)NCC(F)(F)F`, the cytotoxicity call was “inactive”.

As to `CC[C@H]1OC(=O)[C@H](C)[C@@H](O[C@H]2C[C@@](C)(OC)[C@@H](O)[C@H](C)O2)[C@H](C)[C@@H](O[C@@H]2O[C@H](C)C[C@H](N(C)C)[C@H]2O)[C@](C)(O)C[C@@H](C)C(=O)[C@H](C)[C@@H](O)[C@]1(C)O`, the cytotoxicity call is “inactive”. The result for `C[C@H](CO)N1C[C@H](C)[C@H](CN(C)Cc2ccc(-c3ccccc3)cc2)Oc2ccc(NC(=O)CCC(F)(F)F)cc2CC1=O` reads “inactive”; that for `C[C@@H]1CCCCO[C@@H](CN(C)C(=O)C2CCCCC2)[C@@H](C)CN([C@@H](C)CO)C(=O)c2cc(NC(=O)Nc3ccc(C(F)(F)F)cc3)ccc2O1`, “inactive”.
